# Source: PubChem BioAssay (NCI)
# More than one record can exist for a structure, and the calls need not agree.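 How to read the values: 0–100, growth inhibition (40 = 60% inhibited); 0, no net growth; -100 to 0, cell death (-40 = 40% of starting cells died; -100 = all dead).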 A number of entries come with more than one value. The list is limited to them. How the source made its calls: active means growth percent below 10; inactive means the rest. An entry can have further records. These are repeated runs of one drug, at its own concentration, as given; each value is one run. Brackets with × say how often a value occurs here.
# System: HL-60(TB) leukemia
# Assay: NCI-60 one-dose screen, 48 h (100 = growth as untreated, 0 = no growth, -100 = all killed)
# Details: 0.25 µM
smiles,measurement,setting,value
COc1cccc2c1C(=O)c1c(O)c3c(c(O)c1C2=O)C[C@@](O)(C(=O)CO)C[C@@H]3OC1CC(N)C(O)C(C)O1 (stereo partly drawn),growth,runs of 2006,active: 7.91% and inactive: 10.4%
same,growth,runs of 2007,"inactive: 14.4, 12.3, 21, 32.8, 12.2, 44, 43, 33.2, 46.6, 18.6, 25.8, 52.3, 50.6, 32.4, 58.7, 72.6, 15.2, 10.6, 27.7, 16.8, 32.6, 34.3, 52.1, 107, 85.4, 63.6, 51.8, 18.9, 41.2, 64.2, 25.2, 37.9% and active: 8.89, 0.364, 4.53, -0.393, 4.69, 6.81, 9.43, -4.04, 1.75, 5.56, -4.68%"
same,growth,runs of 2008,"inactive: 47.3 (2×), 63.9, 65.7, 31.9, 40.7, 23.2, 88.4, 40, 29.4, 11.1, 64.6, 43.5, 51.1, 51.8, 31.6, 42.3, 11.7 (2×), 49.6, 32.6, 44.8, 13.8 (2×), 14.1, 104, 10.9, 12.4, 24.2, 28.6, 19.3, 46.7, 38, 21.7, 27.9, 18.3, 35.2, 39.9, 55.8, 39.3, 15.9, 17.9, 20.3, 11, 14.3% and active: -13.7, 5.75, 6.54, 7.42, -26.3, 7.34, -7.71, -13.5, 4.89, -16.1, -1.97, 3.16, 2.23%"
same,growth,runs of 2009,"inactive: 78.4, 65, 24.2, 38.7, 17.6, 39.7, 78.7, 65.1, 38, 21.9, 19.3, 66.5, 68.8, 56.6, 15.6, 22.2 (2×), 28.5, 23, 36.1, 42.2, 45.6, 37 (2×), 27, 18.2, 38.6, 33.4 (2×), 23.3, 42.8, 32.4, 45.8, 57.9, 53.1, 31.9, 39.4, 48.7, 58.6, 61.6 (2×), 20.7, 58.2, 54.9, 65.2, 48.6, 64.4, 51.7, 37.8, 36.8, 29.1, 31.7, 49.2, 31.2, 38.9, 24.6, 57.4, 45.9, 46.2, 50, 44.9, 32.9, 44, 49.4% and active: -1.19%, 7%"
same,growth,runs of 2010,"inactive: 50, 46.8 (2×), 48.1, 42.3, 48.9, 49.8, 39.2 (2×), 40, 33.9, 38.5, 35.9, 33.7, 30.4 (2×), 41.4, 45.6, 28.7, 22.2, 27.3, 15.7, 34.9, 54.4, 41.9, 33.1, 29.5, 28.4, 38, 33.8, 38.6, 76.6, 26, 57.7, 39.5, 34.2, 40.6, 36.9, 29.4, 20.2, 41, 47.3, 41.8, 37.6, 35.1, 47.5, 46.2, 38.8, 25.2, 39.4%"
same,growth,runs of 2011,"inactive: 42, 23.6, 33.5, 23.9 (2×), 34.7 (2×), 36.4, 41.6, 23.8, 31.5, 54.7, 18.1, 34.6, 40.1, 50.4, 66.7, 73.4, 65.2, 52.2 (2×), 61.2 (2×), 33.2, 57.9, 59, 56.1, 63.4, 58.8, 72.7, 68.9, 25.8, 31.6, 27.3, 24.9, 30.9, 20.7, 35.7, 41.2, 42.1 (2×), 17, 31.8, 24, 26.4, 24.8, 39.6, 23.7, 35.2, 36.8, 38.8, 20.3, 43.2, 53.1, 50.8, 38.2, 38.5, 27.6%"
same,growth,runs of 2012,"inactive: 53.3, 36.8, 38.1 (2×), 29.9, 43.9, 41.1, 32.6, 34.7, 28.4, 31.5, 29.6, 47.2, 29.2, 44.7, 50.2, 45.2, 28.3, 25, 17.5, 18.9, 28.6, 25.9, 41.6, 44, 39.4, 32.7 (2×), 27.7, 24.5, 30.2, 18.4, 24.3, 25.8, 55.1, 35.6, 28.5, 38.2, 21.8, 34.1, 35.5, 46.4, 27.8, 43.8, 42.3 (2×), 50.9, 46.6, 51.3, 43, 40.9, 32.4, 54.7, 28.9, 30.4, 18.3, 13.6, 42.2, 33.2, 20.3, 23.8, 15.7, 33.5, 40.7, 25.4% and active: 2.59%"
same,growth,runs of 2013,"inactive: 19.7, 19.6, 14.9, 44.4, 51.1 (2×), 40.1 (2×), 19.3, 20.5, 24.8, 29.8, 36.5 (2×), 11, 29.5, 21.6, 30.2, 27.5, 37.5, 30.8, 28.3 (3×), 51.3, 38.4, 42, 60.9, 38.1, 34.9, 46 (2×), 66.1, 49.3, 58.2, 46.3, 41.9, 54.1, 46.6, 47.2, 40.2, 38.7, 41.8, 58.9, 47.6, 29.2, 21.8, 50.9, 32.6, 18.6, 50.2, 45.2, 57.1, 32.2, 31, 39.1, 28.6, 59.8, 62.5, 30.9, 40, 43.8, 32.8, 66.4, 38.5, 64.3, 37.3, 77.4%"
same,growth,runs of 2014,"inactive: 27.8, 17.3, 30, 43.4 (2×), 44.2, 41.3, 44.8, 29.8 (3×), 45.1, 29.3, 51.4, 38.9, 29.7, 52, 29.6 (2×), 40.8, 24.5, 50, 33.7, 33.8 (3×), 41.1, 39.5, 36.5, 36.6, 45, 65.7, 63.1, 36.9 (2×), 32.3, 37.5, 35, 32, 28.7, 32.7, 31.1, 35.3, 34.5, 28.4, 34.9, 32.4, 39.1, 46.7, 39.2, 27.7, 28.5, 48.7, 43, 18, 23.6, 31.7, 27.9 (2×), 40.4 (2×), 54.3, 61, 48.4, 57.9, 35.2, 55, 49.9, 40.6, 42.3 (2×), 24.6, 58, 62.2, 50.1, 38.8%"
same,growth,runs of 2015,"inactive: 37.3, 41.3, 26.4, 32.5, 32.9, 29.1, 30.5 (2×), 37.5 (2×), 36.9, 29.4, 35.5 (2×), 54.9, 43.6 (2×), 22.5, 25.2, 38.2, 45.2, 29.9 (2×), 47.4, 36.3, 50.5, 41.4, 52.8, 34.6, 32.4, 29.3, 35.1, 42.9, 28.9, 25.4, 41, 39.9, 46.2 (2×), 56, 31, 31.9 (2×), 39.3, 48.8, 42.3 (2×), 42.2, 42, 38.8, 42.8, 47, 71.5, 48.6, 29, 25.9, 29.8, 35, 49.6, 31.7, 31.5, 30, 38.3, 40.3, 44.2, 55.1, 75.1, 47.5, 32.6 (2×), 25, 27.3, 52.7, 66.2, 75.5, 78.9, 27.2, 31.4, 41.5%"
same,growth,runs of 2016,"inactive: 38.8, 31.7 (3×), 33.4, 36.9, 37.7 (2×), 39.5, 30.6, 26, 31.6 (2×), 35.1, 23.6, 56, 49.4, 33.1, 37.5 (2×), 40.9, 39.1, 44.3, 40.8 (2×), 30.1, 38.7 (2×), 39.6 (2×), 40.1, 44.8, 27.9, 33.8, 42.6, 29.5 (2×), 42.8, 48.5, 52.8, 56.7, 40.2, 45.6 (2×), 32, 34.7, 39.7, 38.3, 29.2, 29.9, 28.7, 37.4, 35.2, 29.3, 24.2, 41.3, 36.2, 27.6, 46.8, 42.2, 49.7 (3×), 45.1, 47.4, 39.3, 42.9, 46.6, 58.9, 25.3, 18.8, 28.5, 25.5, 29.1, 30.3, 13.4, 12.3, 13.6, 37.6, 50.3, 41.5%"
same,growth,runs of 2017,"inactive: 28.7 (2×), 29.8 (2×), 24.5, 28.9 (2×), 21.4, 25.6 (2×), 21.9 (2×), 22.3 (2×), 22.2, 20.2, 27.2, 29.4 (2×), 36, 33.5, 35.6, 42.7, 35.5 (2×), 32, 25.4, 34.6, 23.8 (2×), 29.2, 27.4, 32.4 (2×), 40.8, 50.2, 19.2, 24.1, 36.2, 35.7, 25.3, 25.9, 24.9, 17.5, 37, 17, 23.1, 28.8, 24.2, 30.4, 22.9, 29.3, 17.9, 23.7, 27, 33.4, 25.2, 20.7, 46.9, 43, 12.7, 12.8, 31.2, 18, 13.9%"
same,growth,runs of 2018,"inactive: 30.9 (3×), 35 (2×), 32.6 (2×), 34.6, 28.3 (2×), 31, 23.4, 29.3, 30.1, 29.1, 31.1, 33.5, 19.5 (2×), 17.1, 10.9, 13.4, 17.9, 28.4, 24.9, 25.2, 38.5, 32.8, 23.9, 24.2, 25.9, 29.4, 24.5, 30.6, 22.3, 32.9, 24.8, 44.8, 32.3, 23.1, 35.7, 26.8, 29.8, 17.6, 38.7, 40.4, 37.6, 42.9, 37, 44.6, 18.4% and active: 1.14%"
